Test results from a collection of fitness landscapes (doi:10.1016/j.celrep.2020.107928).
Over roughly 81,000 sequences, “one-hybrid fitness for binding NBS DNA” has its median near -0.1; the highest 2% begin near 0.36. The list shows a part of the results.

B1: Caulobacter ParB omega fusion; a variant is named by its letters at X, in order, B8GW30 (parent)
chain: MESVVVGEPGMSEGRRGLGRGLSALLGEVDAAPAQAPGEQLGGSREAPIEILQRNPDQPRRTFREEDLEDLSNSIREKGVLQPILVRPSPDTAGEYQIVAGERAWRAAQRAGLKTVPIMVRELDDLAVLEIGIIENVQRADLNVLEEALSYKVLMEKFERTQENIAQTIGKSXSHVANXMRLLXLPDEVQSYLVSGELTAXHARAIAAAADPVALAKQIIEGGLSVRETEALARKAPNLSAGKSKGGRPPRVKDTDTQALESDLSSVLGLDVSIDHRGSTGTLTITYATLEQLDDLCNRLTRGI

Variants of: B1
Experiment: one-hybrid fitness for binding NBS DNA (the Noc-binding site; scaled: cognate 1, non-cognate 0); higher = stronger binding
Conditions: with NBS DNA site
Procedure, shortened: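 Bacterial one-hybrid selection in E. coli USO rpoZ- hisB- pyrF- with a HIS3 reporter carrying the site 19 bp from the promoter, screening Caulobacter ParB libraries with four specificity codons randomised (NNS). Cells grew 48 hours at 37°C on M9-minus-histidine plus 0.1 mM IPTG and 5 mM 3-AT. Plasmids before and after selection were Illumina-sequenced, three replicate libraries pooled, and variants under 10 reads dropped. Fitness is the log change in variant-to-wild-type read ratio, rescaled to cognate 1, non-cognate 0.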

one-hybrid fitness for binding NBS DNA, ≤ 0.2:
MKRA
KACD
QCAG
QIAL
NAHV
NTKM
GLFD
VLWS
PGTH
NILL
FIPM
NPQA
SQIC
SHII
WRHY
DKPS
SAGG
GIKS
ARCA
VATT
LNRP
SGYK
SRRN
PEKT
RPRD
KAPC
KWCS
AFPR
GKPV
HSCA
QHNG
QFAA
TCGL
RHEF
DETW
WCSC
RESC
HGSM
SRPF
CRKH
CSQR
PASK
PRVV
SQHN
YIQG
KFGR
QYHL
QLTN
PCSQ
IRRQ
RLAC
WMKS
HEMV
SHGM
RREQ
SIPE
PFNQ
PHGM
YVMT
IVKF
CPLS
CVLT
TCYW
LWNT
RGLM
YRNC
PPYN
DTQR
HHMS
ECPS
HIFR
LRRN
GPAI
VFMG
MPRH
GWHV
PCFT
LPSF
SPIS
CSSG
GGWT
MTTS
ISHG
ADMC
DISP
RILQ
PMSA
YYSL
ETSM
ELKR
RRYF
QLCE
VVQN
LQNY
RKAG
LEGS
AKGA
QPES
CRMT
LVEL
HSHD
PAAY
CSEC
AQTA
GVNC
NGRF
SMMC
PDTN
TCKS
RGGP
EAQC
VYCC
AISL
ELKT
MFQG
YLLY
KGKS
STKQ
KICR
FQRA
QVRI
QHAI
YKNS
TMIL
NYSV
ALMY
SFFG
TVDS
AMMC
PNSS
KTTH
YAPV
THSA
KTSS
AVNS
RNTI
WFLT
RGAN
CDFR
PDVL
GQQN
SAVL
VWET
YMVG
GLNR
AFDR
SVER
GEAA
TEIT
VDPH
VQET
MYAM
LSNP
FCAH
HSAF
VWAC
YARL
FYGT
HRVC
RVSN
YNLL
KMHS
DKML
TLGS
NKKY
TMDL
AIQL
VDTA
QEPV
HASM
RWIE
AGWE
SWCF
AILG
RGCM
CDVT
YSTK
RADK
EAVR
TWDV
INQR
FHKT
VLGT
RCCI
NPPA
PRVT
AIDT
FTRV
NTLR

one-hybrid fitness for binding NBS DNA, 0.248:
RRCN

one-hybrid fitness for binding NBS DNA, 0.26:
RVKC

one-hybrid fitness for binding NBS DNA, 0.51:
KRMR

one-hybrid fitness for binding NBS DNA, 0.358:
RISS

one-hybrid fitness for binding NBS DNA, 0.202:
QTHW

one-hybrid fitness for binding NBS DNA, 0.434:
QRSQ
